Data as given in the supplement of paper PMC8728848.
The list shows a part of the results.

What was measured:
Test in all cases: glycan array binding signal (z-score within array); higher = stronger binding
Conditions in all cases: glycan notation: IUPAC condensed, linker removed
[1] = biological target: Gal(b1-3)GlcNAc(b1-2)Man(a1-3)[Gal(b1-3)GlcNAc(b1-2)Man(a1-6)]Man(b1-4)GlcNAc(b1-4)GlcNAc
In short: (§1)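 Negative Z-scores can be read as non-binding. The Z-score is calculated within each array and then averaged across arrays of one protein sequence at different concentrations or buffers and across linkers. Arrays, 3228 in all, were curated from the Consortium for Functional Glycomics database and kept only where the protein sequence was available.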

[2] = biological target: Gal(b1-3)GlcNAc(b1-2)Man(a1-3)[Gal(b1-3)GlcNAc(b1-2)Man(a1-6)]Man(b1-4)GlcNAc(b1-4)[Fuc(a1-6)]GlcNAc
In short: as §1

[3] = biological target: Gal(b1-3)GlcNAc(b1-2)Man(a1-3)[GlcNAc(b1-4)][Gal(b1-3)GlcNAc(b1-2)Man(a1-6)]Man(b1-4)GlcNAc(b1-4)GlcNAc
In short: as §1

[4] = biological target: Gal(b1-3)GlcNAc(b1-2)[Gal(b1-3)GlcNAc(b1-6)]Man(a1-6)[Gal(b1-3)GlcNAc(b1-2)Man(a1-3)]Man(b1-4)GlcNAc(b1-4)GlcNAc
In short: as §1

[5] = biological target: Gal(b1-3)GlcNAc(b1-3)Gal(b1-3)GlcNAc
In short: as §1

[6] = biological target: Gal(b1-3)GlcNAc(b1-3)Gal(b1-4)Glc
In short: as §1

[7] = biological target: Gal(b1-3)GlcNAc(b1-3)Gal(b1-4)GlcNAc
In short: as §1

[8] = biological target: Gal(b1-3)GlcNAc(b1-3)Gal(b1-4)GlcNAc(b1-2)Man(a1-3)[Gal(b1-3)GlcNAc(b1-3)Gal(b1-4)GlcNAc(b1-2)Man(a1-6)]Man(b1-4)GlcNAc(b1-4)GlcNAc
In short: as §1

[9] = biological target: Gal(b1-3)GlcNAc(b1-3)Gal(b1-4)GlcNAc(b1-2)[Gal(b1-3)GlcNAc(b1-3)Gal(b1-4)GlcNAc(b1-6)]Man(a1-6)[Gal(b1-3)GlcNAc(b1-3)Gal(b1-4)GlcNAc(b1-2)Man(a1-3)]Man(b1-4)GlcNAc(b1-4)[Fuc(a1-6)]GlcNAc
In short: as §1

[10] = biological target: Gal(b1-3)GlcNAc(b1-3)Gal(b1-4)GlcNAc(b1-3)Gal(b1-4)GlcNAc(b1-2)[Gal(b1-3)GlcNAc(b1-3)Gal(b1-4)GlcNAc(b1-3)Gal(b1-4)GlcNAc(b1-6)]Man(a1-6)[Gal(b1-3)GlcNAc(b1-3)Gal(b1-4)GlcNAc(b1-3)Gal(b1-4)GlcNAc(b1-2)Man(a1-3)]Man(b1-4)GlcNAc(b1-4)[Fuc(a1-6)]GlcNAc
In short: as §1

[11] = biological target: Gal(b1-3)GlcNAc(b1-3)Gal(b1-4)GlcNAc(b1-6)[Gal(b1-3)GlcNAc(b1-3)]Gal(b1-4)Glc
In short: as §1

[12] = biological target: Gal(b1-3)GlcNAc(b1-3)Gal(b1-4)[Fuc(a1-3)]GlcNAc
In short: as §1

[13] = biological target: Gal(b1-3)GlcNAc(b1-3)Gal(b1-4)[Fuc(a1-3)]GlcNAc(b1-6)[Gal(b1-3)GlcNAc(b1-3)]Gal(b1-4)Glc
In short: as §1

[14] = biological target: Gal(b1-3)GlcNAc(b1-3)GalNAc
In short: as §1

[15] = biological target: Gal(b1-3)GlcNAc(b1-6)Gal(b1-4)GlcNAc
In short: as §1

[16] = biological target: Gal(b1-3)GlcNAc(b1-6)GalNAc
In short: as §1

[17] = biological target: Gal(b1-3)GlcNAc(b1-6)[Gal(b1-3)]GalNAc
In short: as §1

Gal(b1-3)GlcNAc6S = biological target: Gal(b1-3)GlcNAc6S
In short: as §1

[18] = biological target: Gal(b1-3)[Fuc(a1-4)]GlcNAc
In short: as §1

[19] = biological target: Gal(b1-3)[Fuc(a1-4)]GlcNAc(b1-2)Man
In short: as §1

[20] = biological target: Gal(b1-3)[Fuc(a1-4)]GlcNAc(b1-2)Man(a1-3)[Gal(b1-3)[Fuc(a1-4)]GlcNAc(b1-2)Man(a1-6)]Man(b1-4)GlcNAc(b1-4)[Fuc(a1-6)]GlcNAc
In short: as §1

[21] = biological target: Gal(b1-3)[Fuc(a1-4)]GlcNAc(b1-3)Gal(b1-3)[Fuc(a1-4)]GlcNAc
In short: as §1

[22] = biological target: Gal(b1-3)[Fuc(a1-4)]GlcNAc(b1-3)Gal(b1-4)[Fuc(a1-3)]GlcNAc
In short: as §1

[23] = biological target: Gal(b1-3)[Fuc(a1-4)]GlcNAc(b1-6)GalNAc
In short: as §1

[24] = biological target: Gal(b1-3)[GlcNAc(b1-6)]GalNAc
In short: as §1

[25] = biological target: Gal(b1-3)[Neu5Ac(a2-6)]GalNAc
In short: as §1

[26] = biological target: Gal(b1-3)[Neu5Ac(a2-6)]GlcNAc(b1-4)Gal(b1-4)Glc
In short: as §1

[27] = biological target: Gal(b1-3)[Neu5Ac(b2-6)]GalNAc
In short: as §1

Gal(b1-4)Gal = biological target: Gal(b1-4)Gal
In short: as §1

[28] = biological target: Gal(b1-4)GalNAc(a1-3)[Fuc(a1-2)]Gal(b1-4)GlcNAc
In short: as §1

[29] = biological target: Gal(b1-4)GalNAc(b1-3)[Fuc(a1-2)]Gal(b1-4)GlcNAc
In short: as §1

Gal(b1-4)Glc = biological target: Gal(b1-4)Glc
In short: as §1

Gal(b1-4)Glc6S = biological target: Gal(b1-4)Glc6S
In short: as §1

Gal(b1-4)GlcNAc = biological target: Gal(b1-4)GlcNAc
In short: as §1

[30] = biological target: Gal(b1-4)GlcNAc(a1-6)Gal(b1-4)GlcNAc
In short: as §1

Gal(b1-4)GlcNAc(b1-2)Man = biological target: Gal(b1-4)GlcNAc(b1-2)Man
In short: as §1

[31] = biological target: Gal(b1-4)GlcNAc(b1-2)Man(a1-3)Man(b1-4)GlcNAc(b1-4)GlcNAc
In short: as §1

[32] = biological target: Gal(b1-4)GlcNAc(b1-2)Man(a1-3)[Gal(b1-4)GlcNAc(b1-2)Man(a1-6)]Man(b1-4)GlcNAc(b1-4)GlcNAc
In short: as §1

[33] = biological target: Gal(b1-4)GlcNAc(b1-2)Man(a1-3)[Gal(b1-4)GlcNAc(b1-2)Man(a1-6)]Man(b1-4)GlcNAc(b1-4)[Fuc(a1-6)]GlcNAc
In short: as §1

[34] = biological target: Gal(b1-4)GlcNAc(b1-2)Man(a1-3)[Gal(b1-4)GlcNAc(b1-2)Man(a1-6)][Gal(b1-4)GlcNAc(b1-4)]Man(b1-4)GlcNAc(b1-4)[Fuc(a1-6)]GlcNAc
In short: as §1

[35] = biological target: Gal(b1-4)GlcNAc(b1-2)Man(a1-3)[Gal(b1-4)GlcNAc(b1-2)Man(a1-6)][GlcNAc(b1-4)]Man(b1-4)GlcNAc(b1-4)[Fuc(a1-6)]GlcNAc
In short: as §1

[36] = biological target: Gal(b1-4)GlcNAc(b1-2)Man(a1-3)[GlcNAc(b1-2)Man(a1-6)]Man(b1-4)GlcNAc(b1-4)GlcNAc
In short: as §1

[37] = biological target: Gal(b1-4)GlcNAc(b1-2)Man(a1-3)[GlcNAc(b1-4)][Gal(b1-4)GlcNAc(b1-2)Man(a1-6)]Man(b1-4)GlcNAc(b1-4)GlcNAc
In short: as §1

[38] = biological target: Gal(b1-4)GlcNAc(b1-2)Man(a1-3)[Man(a1-6)]Man(b1-4)GlcNAc(b1-4)GlcNAc
In short: as §1

[39] = biological target: Gal(b1-4)GlcNAc(b1-2)Man(a1-6)Man(b1-4)GlcNAc(b1-4)GlcNAc
In short: as §1

B1: SSR2 (Sclerotium rolfsii) (protein)
chain: MVYKITVRVYQTNPDAFFHPVEKTVWKYANGGTWSITDDQHVLTMGGSGTSGTLRFHADNGESFTATFGVHNYKRWCDIVTNLAADETGMVINQQYYSQKNREEARERQLSNYQVKNAKGRNFQIVYTEAEGNDLHANLIIG
glycan array binding signal (z-score) [1]: -0.281
glycan array binding signal (z-score) [2]: -0.274
glycan array binding signal (z-score) [3]: -0.277
glycan array binding signal (z-score) [4]: -0.286
glycan array binding signal (z-score) [5]: -0.279
glycan array binding signal (z-score) [6]: -0.287
glycan array binding signal (z-score) [7]: -0.28
glycan array binding signal (z-score) [8]: -0.271
glycan array binding signal (z-score) [9]: -0.221
glycan array binding signal (z-score) [10]: -0.219
glycan array binding signal (z-score) [11]: -0.289
glycan array binding signal (z-score) [12]: -0.292
glycan array binding signal (z-score) [13]: -0.286
glycan array binding signal (z-score) [14]: -0.28
glycan array binding signal (z-score) [15]: -0.291
glycan array binding signal (z-score) [16]: -0.282
glycan array binding signal (z-score) [17]: 1.3
glycan array binding signal (z-score) (Gal(b1-3)GlcNAc6S): -0.269
glycan array binding signal (z-score) [18]: -0.283
glycan array binding signal (z-score) [19]: -0.286
glycan array binding signal (z-score) [20]: -0.243
glycan array binding signal (z-score) [21]: -0.272
glycan array binding signal (z-score) [22]: -0.285
glycan array binding signal (z-score) [23]: -0.288
glycan array binding signal (z-score) [24]: 2.08
glycan array binding signal (z-score) [25]: 0.059
glycan array binding signal (z-score) [26]: -0.276
glycan array binding signal (z-score) [27]: -0.169
glycan array binding signal (z-score) (Gal(b1-4)Gal): -0.288
glycan array binding signal (z-score) [28]: -0.279
glycan array binding signal (z-score) [29]: -0.299
glycan array binding signal (z-score) (Gal(b1-4)Glc): -0.281
glycan array binding signal (z-score) (Gal(b1-4)Glc6S): -0.277
glycan array binding signal (z-score) (Gal(b1-4)GlcNAc): -0.292
glycan array binding signal (z-score) [30]: -0.299
glycan array binding signal (z-score) (Gal(b1-4)GlcNAc(b1-2)Man): -0.265
glycan array binding signal (z-score) [31]: -0.281
glycan array binding signal (z-score) [32]: -0.273
glycan array binding signal (z-score) [33]: -0.282
glycan array binding signal (z-score) [34]: -0.279
glycan array binding signal (z-score) [35]: -0.287
glycan array binding signal (z-score) [36]: 2.17
glycan array binding signal (z-score) [37]: -0.259
glycan array binding signal (z-score) [38]: -0.262
glycan array binding signal (z-score) [39]: -0.275
